Measured values as given in PMC12136788.
Some of the results follow.

B1: chr1:220276048:220276049:+_ENSG00000067704_ENST00000302637|hu_hu|hu_hu_hu_mus_True|18_58 (ssRNA)
RNA: GGGAGUUCUACAGUCCGACGAUCGCAAAUUGCCUGGUUGGCGGGAAUUGUCCAAGGCUGGGUGGUCCAAACUAAAAUACUAACAGGGGAUGAGGCAUCUGUAAGAGACUCCAACUUUGGAGAAGGCCUCAGGAGGGGGAAUCUCAACAGAGGAUUGAGCAUCA
B2: chr7:135612270:135612271:-_ENSG00000105887_ENST00000393085|hu_mus|hu_hu_hu_mus_False|1_1 (ssRNA)
RNA: GGGAGUUCUACAGUCCGACGAUCGUUUUUUUCUGAGAUGUUAAAUAGUACUUCAGUGGAAAACAAAACUUAACCUUUUAUUAAUGCGUGUUGUACCAAAAGCAGACAUUUUAGCUUCAUUUAUUCAAAAAUAUUAAGAACAUUCAACAGAGGAUUGAGCAUCA
B3: chr17:65740002:65740003:+_ENSG00000130935_ENST00000581375|hu_hu|hu_hu_hu_mus_False|38_98 (ssRNA)
RNA: GGGAGUUCUACAGUCCGACGAUCAACAAAUCUUUCUCUGGAUGAAGAACAGGAAGAUUCAUAUUAAAAAAAAUAUAUAUCCAUCAAGUUAGGUGUGUAAUAUCAGACUUUACUCCCAGCACUUUGGGAGGUGGAUCUCUGAGUCAACAGAGGAUUGAGCAUCA
B4: 75761440_75765194_482_CDS_ENSMUSG00000032932_ENSMUST00000046283|mouse|control|control (ssRNA)
RNA: GGGAGUUCUACAGUCCGACGAUCCUCGGCCAUCUCCUUUAGCUUCAGCAGCAAUCGAGAGCCGACAAACUCUGGAGAAACGAUGAUGGUUUCAUUACUUGUCACAGAAAACUCAGCCAUCCCAUUUCUGUGUAAAACCUUAAACAACAGAGGAUUGAGCAUCA
B5: chr4:184596322:184596323:+_ENSG00000168538_ENST00000334690|hu_mus|FALSE|FALSE (ssRNA)
RNA: GGGAGUUCUACAGUCCGACGAUCGGCGUUUUGUGUAUCUUGUUUCAACUCACUGAAGAAAGCUAUUUUAAACUGAUGUCUAACAAACAAAAGCUGGUGUGUUGUUUUAUUCAAAAAUUCCUUAUGAGAUUUCACUCUUCUGAUCAACAGAGGAUUGAGCAUCA
B6: chr4:71639242:71639243:+_ENSG00000018189_ENST00000226328|hu_hu|FALSE|FALSE (ssRNA)
RNA: GGGAGUUCUACAGUCCGACGAUCACCGUCUCCUUCAGUACCUUUACUGCUGUUCCCGUCCUUGAGAUACAUUGAAAAAUCUAUAACUCCAACCUGAGAGUCCAAGUCUUCUCCUUUCAUACAGAAAUUGGCAUCAAUGACAUUCAACAGAGGAUUGAGCAUCA
B7: chr11:100904286:100904287:+_ENSMUSG00000019302_ENSMUST00000044721|mus_hu|FALSE|FALSE (ssRNA)
RNA: GGGAGUUCUACAGUCCGACGAUCAUGGAUGAUACCAAGGAUAACAGACAUCUUCAUCUUAAAGGAGUUCAAGAACGUCAGUUUAUUGGUAGCAAUGUUCCAAAUUGGAUCAAUGCCAAAAGGGUAUGGUCCACCAAACACUCCCAACAGAGGAUUGAGCAUCA
B8: chr17:56552419:56552420:-_ENSMUSG00000013236_ENSMUST00000086828|mus_mus|mus_mus_mus_hu_False|8_8 (ssRNA)
RNA: GGGAGUUCUACAGUCCGACGAUCAAAAAAUACACUAUUUAAAAAAAAUGAAAUGUCACGGGAUACAGUUACACUGAGAGUUUUAAAAGAAAGCUGGAUUCUGGUCCCAGCCCAGUGUCCCCAGGCUGAGUGCGGAAGAGGAGCCAACAGAGGAUUGAGCAUCA
B9: chr3:176740097:176740098:-_ENSG00000177565_ENST00000430069|hu_mus|hu_hu_hu_mus_True|8_68 (ssRNA)
RNA: GGGAGUUCUACAGUCCGACGAUCUGUUUUGUAUACCACAAAAGGAGGCACUUUCAGUAUCUGCAAAAGGUAUUUAAUCCUAAAACAUACUCACCUAGAGGAUAACUCAGGAAAACAAUCUGUUACACUAGUAUCUAUACUCCACAACAGAGGAUUGAGCAUCA
B10: chr1:58468927:58468928:-_ENSMUSG00000026034_ENSMUST00000148330|mus_mus|mus_mus_mus_hu_False|38_58 (ssRNA)
RNA: GGGAGUUCUACAGUCCGACGAUCAAUUACUGAAAAAGAUGUUCAUUACCUUAGCUAUGUACUUAAUGAACCAAAUUAUCUAAAAAAAAUAAACAUGUUUACAAAUUAAUGUUAAGAAUUUACAAAGCUGUACAAAAUAACUUACAACAGAGGAUUGAGCAUCA
B11: chr4:113189463:113189464:+_ENSG00000138660_ENST00000274000|hu_hu|motif|central (ssRNA)
RNA: GGGAGUUCUACAGUCCGACGAUCUACAGGAUUUACAAAUCCAGAAUACUCGGAAUUUCCAUUAUCAUCCAUUUCGGCACGGACAAAAUCAUUUUCCCACUCCAGCCCAUUGGAAUCAUCAGAGGCUGAUGUAGGAUUACUUCCCAACAGAGGAUUGAGCAUCA
B12: chr17:56552419:56552420:-_ENSMUSG00000013236_ENSMUST00000086828|mus_mus|mus_mus_mus_hu_False|28_28 (ssRNA)
RNA: GGGAGUUCUACAGUCCGACGAUCAAAAAAUACACUAUUUAAAAAAAAUGAAAUGUCACGGGAUACAGUUACACUGAGAGUUUUAAAAGAAAGCUGGAUUCUGGUCCUUGCCAAAAGUCCCCAGGCUGCAGAGCGGGGAGGAGCCAACAGAGGAUUGAGCAUCA
B13: 13574355_13574475_1963_CDS_ENSMUSG00000005397_ENSMUST00000005532|mouse|control|control (ssRNA)
RNA: GGGAGUUCUACAGUCCGACGAUCGUUGUACAGGACAAACACGCUGUCCACAGAGAGCUGCUGGGUGCUGGGCAGGGCUGGCCUGGCGUCAUCGUGGGCACACUCCUGGAAGGUGAUGGUCUGACGCCACUGGUAAAUAUGGGUCAACAGAGGAUUGAGCAUCA
B14: chr3:176768308:176768309:-_ENSG00000177565_ENST00000430069|hu_mus|motif|central (ssRNA)
RNA: GGGAGUUCUACAGUCCGACGAUCACUGAGGUUCCAGAUUCUUGCCGUGGAGUCUCCAGACCCUGAUGCCAGGAGAUCACGGACAGGGUUCCAGGCACAGAUGAAAACUUCAGAUUCAUGGCCCCGAAGCACAACCGCUUUAUUCAACAGAGGAUUGAGCAUCA
B15: 64966598_64966718_4841_CDS_ENSG00000171988_ENST00000542921|human|control|control (ssRNA)
RNA: GGGAGUUCUACAGUCCGACGAUCAUCUUUUACAUAUUUAUCAACUAUGAUCUUACUAUCUACACUAUUUUGUAUAUCACUAGAUGUAGAGGCUAUUAAGUUGACAGAACAUGGCUUAAUAAUUUCUGAUACAGAAUUCCCUGACAACAGAGGAUUGAGCAUCA
B16: 138178366_138178486_2588_3pUTR_ENSMUSG00000041570_ENSMUST00000048309|mouse|control|control (ssRNA)
RNA: GGGAGUUCUACAGUCCGACGAUCCCCUGGGGUUGCUGGCUCUUAGGUCAUAGUCCUGAAGAAGCUUAGAUGCAUCAUCCAUGUCGGAGUCUAAGCUAACAGUAUAAUCUCUCAAGGAGGAGUCUUCGUCCAUGGUCUCCGGAACAACAGAGGAUUGAGCAUCA
B17: chr16:42174279:42174280:+_ENSMUSG00000061080_ENSMUST00000099761|mus_mus|FALSE|FALSE (ssRNA)
RNA: GGGAGUUCUACAGUCCGACGAUCGCAGAACAGGGACGCUGCCAGCAGCCACAGUGGUACGGCCAGACUGACGGAUCCGUUGAUUCCUCUCACCGACCCGGGUCUGAAAAGGACUAGGCUGGCAUUGGUGACACCGAGCUUGUUCAACAGAGGAUUGAGCAUCA
B18: 37566520_37566640_2117_CDS_ENSG00000125686_ENST00000300651|human|control|control (ssRNA)
RNA: GGGAGUUCUACAGUCCGACGAUCAUCUUUAAGAAGGUUCAUGAGCAUCGGGUGGUUCUUGGUGUUGCCGGCCAUCGAAGAGACAGGUGGCGGCGUGUGAUGAGGAGGGGUCGGACUCGAGCCAAUGGUAGACCCCCCGUUCCCCAACAGAGGAUUGAGCAUCA
B19: 87704977_87743905_466_CDS_ENSG00000008277_ENST00000398209|human|control|control (ssRNA)
RNA: GGGAGUUCUACAGUCCGACGAUCCAUCCCAUGAAGUCCGUGGCAUGUUGACAAUGCAACAAAUGAGUCAGGGUUUCCUCGGAUAUGGCCCUGGUAGUAACAGUGCUCUCCUCCUUUAACUUCCACAGUCUUGCCUCCAUGUUCCAACAGAGGAUUGAGCAUCA
B20: chr1:167535829:167535830:-_ENSMUSG00000026566_ENSMUST00000068705|mus_mus|motif|central (ssRNA)
RNA: GGGAGUUCUACAGUCCGACGAUCAGGAGGAUUUUUGACAUCGCAGAUAUAGGUGCCAUUGUGAACAGCCUGAAUAUUUUCGGUAUUGAUUGAUGCAUCUUUCUUGUCAAGGUCCCCAGCCCAGGUGACUCGGUCUUUAAAUGGCAACAGAGGAUUGAGCAUCA
B21: chr8:95500983:95500984:-_ENSG00000164944_ENST00000437199|hu_hu|hu_hu_hu_mus_True|68_78 (ssRNA)
RNA: GGGAGUUCUACAGUCCGACGAUCAGAACACAUCUAUCGAGUAAAGGACCGUACAUGGACGACCUCUACCACUGCCUCACUAACAAACUUUCCUCUCGAGCCUCCACUGCCGCUAUUUGUACUAGCCCAGGACGGUCCCAGGCCCAACAGAGGAUUGAGCAUCA
B22: chr3:130449232:130449233:-_ENSG00000196455_ENST00000356763|hu_mus|FALSE|FALSE (ssRNA)
RNA: GGGAGUUCUACAGUCCGACGAUCUUCAUCUACCUCCUCGUUAUCGGGCUCGUUCUCCAUGUUGAGAGUUUUCAGCUGCACAAGCUCCAGGAAUCGCAGAGCCGUCUCGGCCAACAGAGCUAUGUUUUCAGCGUAGGCCAGUCUCAACAGAGGAUUGAGCAUCA

Target: T1, UNK ZnF1-3 (human, UniProt Q9C0B0 31-174)
T1 sequence: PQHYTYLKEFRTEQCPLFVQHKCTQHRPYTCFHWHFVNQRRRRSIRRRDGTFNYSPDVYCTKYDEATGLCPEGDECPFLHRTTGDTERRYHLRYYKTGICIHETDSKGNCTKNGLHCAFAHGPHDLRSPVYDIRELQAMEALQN
Assay: nsRBNS (natural sequence RNA bind-n-seq); RBNS binding buffer (assumed for nsRBNS): 25 mM Tris pH 7.5, 150 mM KCl, 3 mM MgCl2, 0.01% Triton X-100, 500 ug/ml BSA, 20 U/ml SUPERase-In, 4 C; UNK is unkempt and MSI1 is Musashi-1; names of the RNAs are library labels; protein concentration not given here; high values mean tight binding

| Binder | binding signal [enrichment R] |
| --- | --- |
| B1 | 2.91 |
| B2 | 0.925 |
| B3 | 2.36 |
| B4 | 0.707 |
| B5 | 0.928 |
| B6 | 1.07 |
| B7 | 0.755 |
| B8 | 2.08 |
| B9 | 0.752 |
| B10 | 1.73 |
| B11 | 0.4 |
| B12 | 3.25 |
| B13 | 1.14 |
| B14 | 1.07 |
| B15 | 0.687 |
| B16 | 0.677 |
| B17 | 1.02 |
| B18 | 1.11 |
| B19 | 0.828 |
| B20 | 0.894 |
| B21 | 1.34 |
| B22 | 1.05 |
